B1: H1H6783P: anti-PRLR antibody, human IgG1 Fc; HCVR/LCVR SEQ ID NOs 82/90 (antibody, V domains shown)
VH: QVQLQQSGPGLVKPSQTLSLTCAISGDSVSSNTFAWNWIRQSPSRGLEWLGRTYYRSKWYIDYAESVKSRITITPDTSKNQFSLQLNSVTPEDTALYYCAGGYTYAPRGAFDIWGQGTMVTVSS
VL: [skipping about 100 residues]TFGQGTKLEIK
modifications: human IgG1 Fc
B2: H1H6807P: anti-PRLR antibody, human IgG1 Fc; HCVR/LCVR SEQ ID NOs 258/266 (antibody, V domains shown)
VH: QVQLVESGGGVVQPGRSLRLSCAASGFTFSDYNMHWVRQAPGKGLEWVAVIWYDGSNKHYADSVKGRFTISRDNSKNTLYLQMNSLRAEDTAVYYCARDGFTIFGMVLDYWGQGTLVTVSS
VL: [skipping about 100 residues]PFTFGPGTKVDIK
modifications: human IgG1 Fc

Experiments:
[1] = tested on: HEK293/hPRLR/STAT5-Luc cells (human PRLR); assay: STAT5-Luc luciferase reporter assay, blocking of PRL-mediated receptor activation; format: cell-based; details: for Percent Blocking at 100 nM Antibody: 5 nM PRL
Source text: The ability of anti-PRLR antibodies to block prolactin (PRL)-mediated receptor activation was examined in a luciferase-based reporter assay. The endocrine hormone PRL binds to the extracellular domain of its cognate receptor PRLR, triggering rapid homodimerization and activating several downstream signaling cascades.
In this example, an engineered cell line was used to determine the ability of anti-PRLR antibodies to block ligand activation of the PRLR receptor. Briefly, HEK293/hPRLR/STAT5-Luc cell lines with stable incorporation of a human PRLR expression cassette and the STAT5-dependent luciferase reporter were generated via sequential rounds of Lipofectamine® 2000-mediated transfection (LifeTechnologies, Carlsbad, Calif.). Cells were selected for at least two weeks in the presence of 500 μg/mL G418 (hPRLR) and 100 μg/mL hygromycin B (STAT5-Luc). The STAT5-Luc assay utilized 2×10^5 HEK293/hPRLR/STAT5-Luc cells seeded in complete growth medium on PDL-coated 96 well plates grown overnight at 37° C., 5% CO2. To generate antibody inhibition curves, cells were incubated (6 hr at 37° C.) with serially diluted anti-human PRLR antibodies (100 nM to 24 pM) in the presence of 5 nM constant PRL before recording signal. PRL dose response curves were generated by the addition of serially diluted PRL (100 nM to 24 pM) to cells and recording signal after a 6 hr (37° C.) incubation in the absence of antibodies. The ability of the antibodies to activate PRLR in the absence of ligand was also assessed.
Luciferase activity was measured with ONE-GLO™ reagent (Promega, Madison, Wis.). Relative light units (RLUs) were measured on a Victor luminometer (Perkin Elmer, Shelton, Conn.). EC50/IC50 values were determined from a four-parameter logistic equation over an 8-point response curve using GraphPad Prism. Percent blocking and percent activation are reported for the highest antibody dose.

[2] = tested on: HEK293/mfPRLR; assay: FACS cell surface binding; design: species or system macaca fascicularis
Procedure: (§1) The ability of anti-PRLR antibodies to selectively bind PRLR expressing cell lines was next determined. Human, monkey macaca fascicularis, and mouse PRLR constructs with an HA tag were stably introduced into HEK293 cells via Lipofectamine 2000-mediated transfection methodology. Transfectants (HEK293/hPRLR, HEK293/mfPRLR and HEK293/mPRLR) were selected for at least 2 weeks in complete growth media plus G418.
Cell surface expression of PRLR on 293/hPRLR cells was assessed via FACS analysis. Briefly, 1×10^5 cells were incubated with 10 μg/ml of Control antibody I, or an isotype control for 30 min on ice in antibody dilution buffer. Following two washes with antibody dilution buffer, cells were incubated with 10 μg/ml of PE conjugated anti-human secondary antibodies for 30 min on ice. Following two additional washes, samples were run on a Hypercyt® cytometer and analyzed in FORECYT™ (IntelliCyt, Albuquerque, N. Mex.). The mean fluorescence intensities (MFI) were expressed as fold change above isotype control levels (background). FACS binding confirmed that Control I selectively bound to 293/hPRLR expressing cells with MFIs that were 30 fold above background (isotype ctrl) levels and less than 2 fold binding on parental cells. […]

[3] = tested on: HEK293 (non-expressing parental cells); assay: FACS cell surface binding
Procedure: as §1
(§2) Cell surface expression of PRLR on 293/hPRLR cells was assessed via FACS analysis. Briefly, 1×10^5 cells were incubated with 10 μg/ml of Control antibody I, or an isotype control for 30 min on ice in antibody dilution buffer. Following two washes with antibody dilution buffer, cells were incubated with 10 μg/ml of PE conjugated anti-human secondary antibodies for 30 min on ice. Following two additional washes, samples were run on a Hypercyt® cytometer and analyzed in FORECYT™ (IntelliCyt, Albuquerque, N. Mex.). The mean fluorescence intensities (MFI) were expressed as fold change above isotype control levels (background). FACS binding confirmed that Control I selectively bound to 293/hPRLR expressing cells with MFIs that were 30 fold above background (isotype ctrl) levels and less than 2 fold binding on parental cells.
(§3) Next, the anti-PRLR antibodies of the present invention were tested via FACS for selective binding to the engineered overexpressing PRLR HEK293 cell lines, as well as to non-expressing HEK293 cells and a native PRLR expressing cell line (T47D).

[4] = target: T1, HEK293/mPRLR (Mus musculus, UniProt Q08501); assay: FACS cell surface binding
T1 construct: HA; expressed in transfected cells; host or cells: HEK293
T1 sequence (Q08501 20-608): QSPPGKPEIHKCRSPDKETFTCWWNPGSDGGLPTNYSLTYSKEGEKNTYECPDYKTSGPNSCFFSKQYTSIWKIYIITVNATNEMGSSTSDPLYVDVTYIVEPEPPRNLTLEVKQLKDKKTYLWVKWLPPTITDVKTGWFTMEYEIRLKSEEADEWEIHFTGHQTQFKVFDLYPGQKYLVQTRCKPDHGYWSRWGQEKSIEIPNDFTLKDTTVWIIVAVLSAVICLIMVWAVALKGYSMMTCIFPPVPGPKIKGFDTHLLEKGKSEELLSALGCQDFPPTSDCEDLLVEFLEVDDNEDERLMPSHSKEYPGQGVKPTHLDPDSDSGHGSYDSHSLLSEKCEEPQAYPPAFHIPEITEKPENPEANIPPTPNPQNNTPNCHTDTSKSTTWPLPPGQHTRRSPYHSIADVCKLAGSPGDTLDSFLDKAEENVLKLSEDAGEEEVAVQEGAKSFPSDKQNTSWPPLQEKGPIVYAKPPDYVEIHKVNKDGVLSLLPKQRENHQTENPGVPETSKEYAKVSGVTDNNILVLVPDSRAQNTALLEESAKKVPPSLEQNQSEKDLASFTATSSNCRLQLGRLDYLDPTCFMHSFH
Procedure: as §1, §2, §3

[5] = target: T2, T47D (native PRLR expressing cell line) (Homo sapiens, UniProt P16471); assay: FACS cell surface binding
T2 construct: a native PRLR expressing cell line (T47D); endogenous in cells; host or cells: T47D
T2 sequence (P16471 25-622): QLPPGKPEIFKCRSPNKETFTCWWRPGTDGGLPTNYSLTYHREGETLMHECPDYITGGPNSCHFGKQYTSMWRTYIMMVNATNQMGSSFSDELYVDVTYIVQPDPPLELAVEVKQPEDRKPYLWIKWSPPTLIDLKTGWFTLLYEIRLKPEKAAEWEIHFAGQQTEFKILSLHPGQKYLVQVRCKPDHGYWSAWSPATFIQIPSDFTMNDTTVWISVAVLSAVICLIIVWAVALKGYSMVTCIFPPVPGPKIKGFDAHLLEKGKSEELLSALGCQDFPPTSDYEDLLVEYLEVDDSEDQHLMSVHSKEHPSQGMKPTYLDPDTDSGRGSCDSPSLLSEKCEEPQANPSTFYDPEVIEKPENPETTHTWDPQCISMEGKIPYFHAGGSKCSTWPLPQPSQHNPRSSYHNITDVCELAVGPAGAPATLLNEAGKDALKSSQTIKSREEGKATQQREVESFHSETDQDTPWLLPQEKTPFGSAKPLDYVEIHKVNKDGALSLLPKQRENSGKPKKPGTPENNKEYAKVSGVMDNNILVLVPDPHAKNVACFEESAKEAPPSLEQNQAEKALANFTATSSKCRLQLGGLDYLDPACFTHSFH
Procedure: as §1, §2, §3

[6] = target: T3, HEK293/hPRLR (Homo sapiens, UniProt P16471); assay: FACS cell surface binding
T3 construct: HA; expressed in transfected cells; host or cells: HEK293
T3 sequence (P16471 25-622): T2 sequence (P16471 25-622)
Procedure: as §1, §2, §3

[7] = target: T4, PRLR-expressing cells (T47D) (Homo sapiens, UniProt P16471); assay: Antibody binding and internalization by PRLR-expressing cells (imaging); format: cell-based; details: [mAb] (0.67 nM); for % Internalization relative to Control I: alexa488 intensity in intracellular vesicles, 1 h at 37° C.; for % Total Binding relative to Control I: whole cell alexa488 intensity at 37° C.
T4 construct: a native PRLR expressing cell line (T47D); endogenous in cells; host or cells: T47D
T4 sequence (P16471 25-622): T2 sequence (P16471 25-622)
Procedure: In this Example, the internalization of anti-PRLR antibodies by PRLR-expressing cells (T47D) was assessed. Briefly, 20,000 T47D cells were seeded in collagen coated 96 well plates. […] Cells were then incubated with alexa488 conjugated anti-hFc Fab secondary antibodies for 30 minutes on ice followed by two additional PBS washes. Antibodies were allowed to internalize for 1 h at 37° C. in internalization buffer (PBS+2% FBS) or remained at 4° C. Cells were fixed in 4% formaldehyde, nuclei were stained with DRAQ5 (Cell signaling), and images were acquired on the ImageXpress micro XL (Molecular Devices). Whole cell alexa488 intensity at 37° C. (Binding) and the alexa488 intensity in the intracellular vesicles at 37° C. (Internalization) were determined via Columbus image analysis software (PerkinElmer).

[8] = target: T5, hPRLR.mmh (soluble monomeric human PRLR) (Homo sapiens, UniProt P16471); assay: Surface plasmon resonance (Biacore T200), mAb-capture format; format: binding; details: antibody-capture format, analyte hPRLR.mmh
T5 construct: soluble monomeric (hPRLR.mmh); mmh (myc-myc-hexahistidine)
Procedure: (§4) Antibodies, expressed as human IgG1 Fc “[…]” designations), were captured onto an anti-human Fc sensor surface (mAb-capture format), and soluble monomeric (hPRLR.mmh; SEQ ID NO:401, or macaca fascicularis (mf) PRLR.mmh; SEQ ID NO:403) or dimeric (hPRLR.mFc; SEQ ID NO:402) PRLR protein was injected over the sensor surface. Measurements were conducted on a T200 Biacore instrument. Kinetic association (ka) and dissociation (kd) rate constants were determined by processing and fitting the data to a 1:1 binding model using Scrubber 2.0 curve fitting software.

[9] = target: T6, hPRLR.mFc (soluble dimeric human PRLR) (Homo sapiens, UniProt P16471); assay: as above; format: binding; details: antibody-capture format, analyte hPRLR.mFc
T6 construct: dimeric (hPRLR.mFc)
Procedure: as §4

[10] = target: mfPRLR.mmh (monomeric macaca fascicularis PRLR); assay: as above; format: binding; details: antibody-capture format, analyte mfPRLR.mmh
Procedure: as §4

T6 sequence (P16471 with tags, fused parts or gaps): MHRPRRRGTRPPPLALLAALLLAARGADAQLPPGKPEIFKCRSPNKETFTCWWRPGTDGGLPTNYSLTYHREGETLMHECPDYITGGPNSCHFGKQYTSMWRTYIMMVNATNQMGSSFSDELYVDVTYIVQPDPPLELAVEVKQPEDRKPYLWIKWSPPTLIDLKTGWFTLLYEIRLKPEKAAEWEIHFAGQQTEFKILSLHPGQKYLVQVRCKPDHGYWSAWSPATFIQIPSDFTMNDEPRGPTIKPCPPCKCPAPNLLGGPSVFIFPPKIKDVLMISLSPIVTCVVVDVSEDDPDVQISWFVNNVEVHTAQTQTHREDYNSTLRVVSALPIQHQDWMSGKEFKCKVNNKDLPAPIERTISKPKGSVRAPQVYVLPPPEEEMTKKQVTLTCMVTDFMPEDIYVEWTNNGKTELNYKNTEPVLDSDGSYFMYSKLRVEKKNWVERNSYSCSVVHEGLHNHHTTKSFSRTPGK
T5 sequence (P16471 with tags, fused parts or gaps): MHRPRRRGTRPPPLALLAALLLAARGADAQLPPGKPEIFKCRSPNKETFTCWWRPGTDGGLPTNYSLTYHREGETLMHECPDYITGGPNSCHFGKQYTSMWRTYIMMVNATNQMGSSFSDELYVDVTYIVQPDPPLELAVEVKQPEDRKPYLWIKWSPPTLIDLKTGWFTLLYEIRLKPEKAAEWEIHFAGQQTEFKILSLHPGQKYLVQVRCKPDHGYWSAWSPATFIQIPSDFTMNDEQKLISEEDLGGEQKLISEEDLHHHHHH

Molecule | Percent Blocking at 100 nM Antibody [1] [%] | FACS Cell Binding (Fold Above Background) [2] [Fold Above Background] | FACS Cell Binding (Fold Above Background) [3] [Fold Above Background] | FACS Cell Binding (Fold Above Background) [4] [Fold Above Background] | FACS Cell Binding (Fold Above Background) [5] [Fold Above Background] | FACS Cell Binding (Fold Above Background) [6] [Fold Above Background] | % Internalization relative to Control I [7] [%] | % Total Binding relative to Control I [7] [%] | Kd ([8]; 25° C.) [nM] | T½ ([8]; 25° C.) [min] | Kd ([8]; 37° C.) [nM] | T½ ([8]; 37° C.) [min] | Kd ([9]; 25° C.) [nM] | T½ ([9]; 25° C.) [min] | Kd ([9]; 37° C.) [nM] | T½ ([9]; 37° C.) [min] | Kd ([10]; 25° C.) [nM] | T½ ([10]; 25° C.) [min] | Kd ([10]; 37° C.) [nM] | T½ ([10]; 37° C.) [min] | also measured
B1 | 59 | 27 | 1 | 1 | 38 | 37 | 160.7 | 165.8 | 1.43 | 28 | 3.91 | 7 | 0.332 | 132 | 0.282 | 83 | 1.81 | 34 | 4.74 | 9 | –
B2 | 100 | 27 | 2 | 2 | 34 | 32 | 147.0 | 152.7 | 0.189 | 80 | 0.31 | 34 | 0.0803 | 212 | 0.09 | 105 | 0.346 | 76 | 0.448 | 32 | IC50 ([1]; 5 nM constant PRL, 6 hr at 37° C.): 0.6 nM

From patent publication US9688764B2, “Methods of treating breast cancer by administering anti-human prolactin receptor (PRLR) antibodies” (REGENERON PHARMACEUTICALS, INC., priority 2013, dated 2017)
